Test results taken from the supplement of paper PMC11417369.
The list shows a part of the results.

test system: PfAP2-HC AP2 domain (GST-tagged); assay: gcPBM binding intensity (ln(normalized median fluorescence intensity)); higher = stronger DNA binding
Procedure, shortened: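 GST-fused DNA-binding domains of P. falciparum, expressed in E. coli, were applied at about 25 μg on average for 1 h to an Agilent 4 × 180k array of primer-extended double-stranded 36-bp intergenic genomic probes and negative controls. Binding intensity is the highest Masliner-normalised natural-log median intensity across replicate spots of either probe orientation, measured with Alexa488 anti-GST antibody and a 488 nm scan.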

| Sequence | gcPBM binding intensity (ln) |
| --- | --- |
| AACTTTGAGACATAGTGTACTTACACAATCTTAATA [XGTACX_site3712] | 9.63 |
| ACATTTTTTTTTTTTTTTCTTTTTCTTTTTCTTTTT [CACACA_negctrl_site1295] | 9.55 |
| CATATTTGATACAAGTGTACTTTATTTAAAAATTCT [XGTACX_site8408] | 9.4 |
| TTTCAAAAAAATAGCTATATTTATATTAATGCACGA [TGCATGCA_negctrl_site63] | 9.47 |
| TAATAAAAATAAAATTGTACTAATAACATTTCATTA [XGTACX_site3703] | 9.45 |
| TATATAACTGTCTTCAGTACACAATAAATAAAAATA [XGTACX_site8856] | 9.59 |
| AAAGGTGTATATAATACACACGTGTGATTAAAATTG [CACACA_site8104] | 10.1 |
| GAAAAAATAAAATAAAGTACATAACTATAATAAAAA [XGTACX_site4807] | 9.89 |
| CTTACACCCATATATACACACATGTATATTTTATAT [CACACA_site4462] | 10.1 |
| TACTCCTCAATATTATGTACATATAATAGTTATAAA [XGTACX_site8551] | 9.56 |
| ATATATAAACACTCTTGTACATAATAATGTATATAT [XGTACX_site2451] | 9.73 |
| TCGTATCTATTGAGGGTGCCTCTATAATTGATACAA [GTGCAC_site9636] | 9.08 |
| TAATATAATATATGCACACAAATATGTATTTATGTG [CACACA_site5210] | 10.3 |
| AGTAAATAATAGATCGCATGTAATAACTAGTAGGAA [TGCATGCA_site948] | 9.89 |
| ACAATTGAAGAAATACGTACATAAAGAAAAACTAGT [XGTACX_site820] | 9.92 |
| ATTATAAAGACATATACACACATACGTACATACATA [CACACA_site5893] | 10.1 |
| AGTATAAAATAAATGTGTACACAAGAAAATATGTTA [XGTACX_site8381] | 10.1 |
| AAAATCACAAGACACACACACACAAAAAAAAAAAAA [CACACA_site6791] | 11.5 |
| ATATATATATGTATGTGTCCACAAGGAGATATATAT [XGTACX_site783] | 10 |
| AAAATATTTTAATGTTGTACATTAATATATTATATA [XGTACX_site2513] | 9.5 |
| TGTATTAAATTTTGAACACACAAAATAAAACATATA [CACACA_site1672] | 9.7 |
| TACATAAATATATGTGTGCACAATTTCGTATATTTA [GTGCAC_site9859] | 10 |
| TGTACATTCGGAGTAAAAAAAAATTTATACAATTAC [CACACA_negctrl_site1451] | 9.38 |

| Sequence | gcPBM binding intensity (ln) |
| --- | --- |
| AACAGATAAAAGGGTACACACATATATACCTGTACA [CACACA_site4285] | 9.87 |
| AAACAGAAGACATATACACACATACAAAAAAGTGCA [CACACA_site4699] | 10.2 |
| TTCTCATTCAAATTAGTGCATTTTTGTTATTACATT | 9.8 |
| TGTGTATATATATAATGTACATAAAGATTTATATAT [XGTACX_site5835] | 9.66 |
| TTATTTATATATTCATGTACATAACATTTCATTCGA [XGTACX_site4388] | 9.51 |
| TTTTAAGAATAAAATTGTACACATACATGTGTTCGC [XGTACX_site438] | 9.66 |
| ATATAAATTTTTTAGAGTACTAAAATAAAATAATAT [XGTACX_site2118] | 9.57 |
| TTTTCTAAAATGAATTGTACTTGATTATTTAAAAAA [XGTACX_site6097] | 9.25 |
| TAAAAAATGAAAAAGCGTACATGTTTTCTTATATTA [XGTACX_site1722] | 9.62 |
| ATACTAAAAAGTATCTGTACTTATTTTAAAAATAAA [XGTACX_site4116] | 9.34 |
| TAAATAATTAAAATATGTACTGAAATGTAATTATTT [XGTACX_site5894] | 9.64 |
| TATTTACTTATATGCACACATAAATGTGAATTATGG [CACACA_site3777] | 9.69 |
| TGTATCATAAAAATAACACACGTATTTTTTTTTATT [CACACA_site1050] | 9.65 |
| AATAATATATATATATATATAATAAAATATAAATAG [CACACA_negctrl_site1515] | 9.83 |
| CCAACATGCCCACGCACACACAAAAAAAGCATGCAT [CACACA_site4217] | 10 |
| TTATTTATTTATAATAGTACAATTTAATGATCTTCT [XGTACX_site4831] | 9.37 |
| TGTTTTATACTAAATGAACACACACCCATATATATA [CACACA_site7912] | 10.1 |
| CAATATATTTGATTTACACACTTACAATGTATATAA [CACACA_site2994] | 9.55 |
| AAAAATAACGTAAATTGTACATGTAAAATTTTCTAT [XGTACX_site7158] | 9.78 |
| ATATGAAATAATAATAGTACATAAAATAATTTTACT [XGTACX_site6964] | 9.66 |
| ATAGAAATATATATATGTACATATAGATAAATCTAT [XGTACX_site7833] | 9.75 |
| ATAAATACAGATAACACACACATATATATATATATA [CACACA_site5431] | 10.2 |
| AAAAAAAAAAAAGATACACACAAAAATGAATATATA [CACACA_site2099] | 9.95 |

| Sequence | gcPBM binding intensity (ln) |
| --- | --- |
| ATTATGTATATAAATTAACACACATATGTGGTTAAT [CACACA_site9028] | 9.69 |
| ACGGGTCAATATATGCGTACTTATTTAAATAATTAA [XGTACX_site1518] | 9.61 |
| AATAATATAGATTGTACACACAAAATGGGAAAAAAA [CACACA_site1886] | 10.1 |
| ATAAATGGAAACAAAAGTACTAAAAAAAAAAAATAA [XGTACX_site1510] | 9.65 |
| TATATATGTATGTATTGTACAATTAAAAATATGTAT [XGTACX_site3990] | 9.68 |
| ATCAAGCACCAACACACACACACACCCCCACCCACA [CACACA_site370] | 11.3 |
| TAAATAAATAAAAAAACACACATATATATATATATA [CACACA_site4029] | 10 |
| TTTTATCACATTATTGCACACACATAAAGAAAAAAA [CACACA_site8922] | 9.98 |
| ATATATATATATATATGTACATATATATATAATTTT [XGTACX_site4146] | 9.62 |
| ATATATATATATAACTGTACTTATATATACATTTTA [XGTACX_site8605] | 9.64 |
| TTATATTTATTTATTTGTACATATTTTTTTTTATAT [XGTACX_site1669] | 9.77 |
| TTTCTTTTTAAATATATACACACCGTGGGTACATAT [CACACA_site9102] | 9.73 |
| ATATAATAAAATGACACACGCATATATATATATATA [CACACA_site2789] | 9.74 |
| AGGCTCAAATCTAGGTGTACCATTATCGTTGTATCT [XGTACX_site4730] | 9.78 |
| ATTTTTTCTTATAATGCATGTAGAAAACCGTACAGC [TGCATGCA_site57] | 9.31 |
| TATGTGTTTATTTGGTGTACATACTAATAAATATAC [XGTACX_site1682] | 9.63 |
| CCTAAATTATATTATGCACACTTAAAAATATATTTA [CACACA_site5861] | 9.58 |
| TCATATCTTTTGAGCACACATATATATATATAAAGG [CACACA_site3338] | 9.57 |
| ATTAATATTCTATATGCATGTGAACCATGGTATATA [TGCATGCA_site430] | 9.61 |
| ATATATATATATATATGTACTTATTTATCGTATTAT [XGTACX_site3520] | 10 |
| ATAAAATATTAATTTTAAATTAATCAATATATATAA [GTGCAC_negctrl_site474] | 9.4 |
| TATCTTAACAATTAGTGTACAGATAACCAATTAAAA [XGTACX_site3184] | 9.55 |
| AACATATAAAAATGTGCACACACACCCATATATATA [CACACA_site1525] | 10.3 |

| Sequence | gcPBM binding intensity (ln) |
| --- | --- |
| ATAATAAATGATAGCACACATATGTACATAAATACA [CACACA_site4634] | 9.96 |
| TGAAGGTTTCAAAAACGTACAAAAAAAAATGTTAGT [XGTACX_site8803] | 9.62 |
| TTTTTTTTTTATGGTACACACACGCGTATGGTTGCA [CACACA_site1876] | 10 |
| TTTAGAAATAAATACACACATACATTTTTGTATACA [CACACA_site718] | 9.74 |
| CTTTGTGGTATAGATACACACTATATTAAGATGAAC [CACACA_site5215] | 9.61 |
| TAAAATAAAAATATAGTGCACAGATTTTGATATTTT [GTGCAC_site9696] | 9.85 |
| CACATTATGTATCATACACACAAATAGATATATAAC [CACACA_site6434] | 9.88 |
| ACTTTTATTCGCTTACGTACATATATTATATATTAT [XGTACX_site4459] | 10.1 |
| AAAAGAAAATATATGTGTACTAAAATATATATATAT [XGTACX_site3817] | 10 |
| GTTTATTAAACATTAGTGCAATTTTAATCCATTCTA | 9.47 |
| TACCTACACTTTTGGAGTACAATTAAAAAAAAAAAA [XGTACX_site1403] | 9.3 |
| TTTAAAGTAATAAAGTGTACAAAAATAAATTCAGCT [XGTACX_site8651] | 9.99 |
| TTCTTTGTAGTATATTAACACACAACTGTTTATAAT [CACACA_site9305] | 9.91 |
| CAAATCAAAATTAATTAACACACAATTTTAATATTC [CACACA_site8641] | 9.65 |
| TATAATGTTGATAATAGTACGTATGAGTTCAAAAAA [XGTACX_site988] | 9.65 |
| AAATAGAGAAATACAAGTACATACTAAACCAATCTA [XGTACX_site2780] | 9.74 |
| AAAGGATATAATACCATACACACATTTATAAAATAA [CACACA_site1931] | 10.4 |
| AAATCATGTTGAAGGGGTACAAAATATGTAATGTTG [XGTACX_site6222] | 9.82 |
| ATATTATATATTTGATGTACATTGAATGAGAGAGAA [XGTACX_site3324] | 9.95 |
| TTAATCCTTTTTAAAAGTACACATATATATATATAT [XGTACX_site962] | 9.75 |
